From paper PMC4336329 (PLoS ONE, 2015)
Among all 310,000 compounds or so, about 2,200 (0.71%) showed an effect of 50% or more. The effect is printed as a negative number. This is one part of the list.

target: human ether-à-go-go-related gene (hERG) potassium channel (human, UniProt Q12809); test: primary screen, population patch clamp on CHO cells stably expressing hERG
Sequence (Q12809 whole entry, looked up): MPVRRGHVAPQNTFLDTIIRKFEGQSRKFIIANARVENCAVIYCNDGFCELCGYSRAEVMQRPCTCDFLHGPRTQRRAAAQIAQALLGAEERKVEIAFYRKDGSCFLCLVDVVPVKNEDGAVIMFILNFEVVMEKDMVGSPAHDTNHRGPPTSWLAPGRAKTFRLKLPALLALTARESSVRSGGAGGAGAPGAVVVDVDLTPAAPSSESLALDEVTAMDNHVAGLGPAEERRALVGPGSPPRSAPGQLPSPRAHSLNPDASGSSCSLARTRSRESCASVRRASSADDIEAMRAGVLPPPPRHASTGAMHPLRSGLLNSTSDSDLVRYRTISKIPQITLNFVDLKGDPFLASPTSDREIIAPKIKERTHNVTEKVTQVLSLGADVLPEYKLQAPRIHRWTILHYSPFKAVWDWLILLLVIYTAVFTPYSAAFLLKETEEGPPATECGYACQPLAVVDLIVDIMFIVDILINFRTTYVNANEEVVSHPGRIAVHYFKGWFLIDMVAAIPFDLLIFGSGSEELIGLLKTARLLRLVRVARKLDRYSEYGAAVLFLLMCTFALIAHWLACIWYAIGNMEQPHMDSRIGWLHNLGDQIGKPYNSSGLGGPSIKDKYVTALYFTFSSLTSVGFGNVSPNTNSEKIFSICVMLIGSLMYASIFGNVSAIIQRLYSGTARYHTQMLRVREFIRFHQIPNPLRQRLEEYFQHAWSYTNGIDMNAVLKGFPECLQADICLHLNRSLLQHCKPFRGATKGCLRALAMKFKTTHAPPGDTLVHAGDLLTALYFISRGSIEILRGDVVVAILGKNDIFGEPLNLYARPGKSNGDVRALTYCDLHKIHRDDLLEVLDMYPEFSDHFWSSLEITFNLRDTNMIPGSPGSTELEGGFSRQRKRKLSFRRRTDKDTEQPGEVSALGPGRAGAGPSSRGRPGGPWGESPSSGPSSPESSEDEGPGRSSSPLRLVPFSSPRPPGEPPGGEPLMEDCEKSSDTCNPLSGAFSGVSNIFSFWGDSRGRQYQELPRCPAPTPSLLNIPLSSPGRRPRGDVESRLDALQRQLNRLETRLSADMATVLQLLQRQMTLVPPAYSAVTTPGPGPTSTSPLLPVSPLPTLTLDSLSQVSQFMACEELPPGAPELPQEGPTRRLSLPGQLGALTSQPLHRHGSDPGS

Row | SMILES | hERG current change (%, negative = inhibition) at 1uM [%]
1 | C=CCNC(=O)c1cc(-c2ccccc2O)on1 | 10.6
2 | COc1cccc(C(=O)Nc2nnc(-c3ccccc3)s2)c1OC | 11.7
3 | COc1ccccc1CNc1nc2nc(C)c(Cl)c(=O)n2[nH]1 | 3.72
4 | CCSC1=NN1c1cc(C)nc(N)n1 | 5.22
5 | COc1ccc(Oc2cc(C(F)(F)F)nc(N(C)C)n2)cc1 | 11.8
6 | COc1cccc(CC(=O)n2nc(N)c3cc4ccc(OC)cc4nc32)c1 | 7.61
7 | CCN(CC)CCCOc1ccc(C)cc1Br | -45.3
8 | Cc1ccc(CNC(=O)[C@@H](NC(=O)Cc2ccccc2)C(C)C)cc1 | 11.9
9 | Cc1cc(=O)nc2c3ccccc3n(C(C)C(=O)NCCN3CCOCC3)n12 (stereo not drawn) | 11.2
10 | COc1ccc(CNC(=O)COC(=O)C2CCC(C(C)(C)C)CC2)cc1 (stereo not drawn) | 14.8
11 | O=C(CCc1nnc(C2CCCCC2)o1)N1CCC(Oc2cccnc2)CC1 | 19.6
12 | O=C(COC(=O)Cc1c[nH]c2ccccc12)Nc1ccccc1 | 11.7
13 | O=S(=O)(c1ccccc1)N1CCN(Cc2cccc(Br)c2)CC1 | 17.8
14 | O=C(CCNC(=O)c1ccccc1Cl)NC1=NCCS1 | 9.35
15 | Cc1nc2scc(C)n2c(=O)c1S(=O)(=O)N1CCN(c2ccccc2)CC1 | 0.702
16 | CCn1c(-c2cc(Br)ccc2O)n[nH]c1=S | 13.8
17 | Cc1cc(C)cc(Oc2coc3cc(OC(=O)c4cccnc4)ccc3c2=O)c1 | 13.5
18 | CC(=O)Nc1ccc(S(=O)(=O)NC(C)C(=O)NCC(c2ccco2)N2CCCCC2)cc1 (stereo not drawn) | 6.37
19 | CC(NC(=O)c1cc(F)c(F)c(F)c1F)c1ccc(-n2ccnc2)cc1 (stereo not drawn) | -37.3
20 | CCCCCCN=C(C)c1c(O)n(CCCC)c(=O)[nH]c1=O | 6.09
21 | Cc1cccc(NC(=S)N/N=C/c2cccc([N+](=O)[O-])c2)c1 | -2.16
22 | O=C(OCc1c(F)cccc1Cl)c1cnc2ccccc2n1 | 15.4
23 | CC1C(c2ccccc2)N(C)C(c2ccccc2)CC1(O)c1ccccc1 (stereo not drawn) | 5.03

Row | SMILES | hERG current change (%, negative = inhibition) at 1uM [%]
24 | O=C(Nc1ccccc1C(F)(F)F)C1CCN(C(=O)Cc2ccccc2)CC1 | 12.6
25 | Cc1cc(C)n(-c2ccc(NN=C(C#N)C#N)cc2)n1 | -10.2
26 | CCS(=O)(=O)N1CCC(C(=O)N2CCc3ccccc3C2)CC1 | 6.19
27 | O=C1CC(N2CCOCC2)C(=O)N1c1ccc2c(c1)OCO2 (stereo not drawn) | -7.44
28 | Cc1ccsc1/C=C1\CCc2ccccc2C1=O | 2.54
29 | CCC(CC)NC(=O)COC(=O)CCC(=O)c1cccs1 | -2.05
30 | Cc1nn(-c2ccccc2)c(Cl)c1/C=N/N1CCN(c2ccccn2)CC1 | 19.1
31 | COc1cc(C(CC(=O)Nc2cccc(C)n2)N2Cc3ccccc3C2=O)cc(OC)c1OC (stereo not drawn) | 6.6
32 | CCOC(=O)CSC1=C(C#N)C(c2ccccc2)C(C(C)=O)=C(C)N1 (stereo not drawn) | 12.9
33 | Cl.NCCSSCCN | 11
34 | COCCn1c(SCc2nc(N)nc(Nc3ccccc3C)n2)nc2ccccc2c1=O | -1.05
35 | COc1ccc(O)c(C(C)(C)C)c1 | 1.86
36 | CCC(CC)c1nnc(NC(=O)CCc2ccccc2OC)s1 | 7.48
37 | CC(=O)/C(=N\Nc1ccccc1)Oc1ccc(Br)cc1 | 16.6
38 | CCn1cc(C(=O)NCCc2ccc(OC)cc2)c(=O)c2ccc(C)nc21 | 11.2
39 | CCCCNC(=O)c1ccc2c(c1)ncn2C1CCCC1 | -3.73
40 | CN1CCc2c(C#N)c(Cl)nc(Cl)c2C1 | 12.4
41 | Cc1cc(C)cc(NC(=O)Cn2nnc(C(=O)NCCc3ccccc3)c2N)c1 | 11.6
42 | CCc1ccc(N2CC(C(=O)Nc3ccc(S(=O)(=O)Nc4ncccn4)cc3)CC2=O)cc1 (stereo not drawn) | 12.3
43 | COCCCNC(=O)CCSc1ccc(Cl)cc1 | -11.5
44 | COc1ccc(CCNC(=O)c2c(O)c3cccc4c3n(c2=O)CC4)cc1OC | -6.66
45 | COc1cc(/C=N/Nc2ccc([N+](=O)[O-])cn2)cc(OC)c1O | 13.1
46 | COc1cc(/C=C/C(=O)OCC(=O)c2c[nH]c3ccccc23)ccc1OC(F)F | 10.9

Row | SMILES | hERG current change (%, negative = inhibition) at 1uM [%]
47 | COc1ccc(/C=C/c2nc3ccccc3n2Cc2ccccc2OC)cc1 | 7.68
48 | O=C(CSc1nnnn1-c1ccccc1)NCc1cccs1 | 18.9
49 | CC(=O)c1c(C)[nH]c(C(=O)OCc2cc(=O)n3cc(Br)ccc3n2)c1C | 4.39
50 | Cc1ccc(S(=O)(=O)NCc2ccccc2)cc1C(=O)NC1CCCCC1 | 11.1
51 | C=CCn1c(=O)/c(=C/c2ccc(F)cc2)s/c1=C(\C#N)c1nnc2n1CCCCC2 | -6.39
52 | CCOC(=O)c1cc(NC(=O)c2ccoc2C)cc(C(=O)OCC)c1 | -7.79
53 | CC(=O)Nc1ccc(NC(=O)C(C)OC(=O)CCCc2c[nH]c3ccccc23)cc1 (stereo not drawn) | 23.4
54 | O=C(CCNS(=O)(=O)c1cccc2nsnc12)NCc1ccccc1 | 0.712
55 | CC(C)NC(=O)NC(=O)COC(=O)c1ccc(S(=O)(=O)NCc2ccco2)cc1 | 10.9
56 | C=CCN1C(=O)CSc2ccc(C(=O)N3CCC(C)CC3)cc21 | -3.44
57 | Clc1ccccc1Cc1noc(CN2CCN3CCCC3C2)n1 (stereo not drawn) | 2.3
58 | O=C(CSc1nc2c([nH]c3ccccc32)c(=O)n1-c1ccc(F)cc1)NCc1ccco1 | 8.46
59 | CC(C)(C)NC(=O)NC(=O)CN1CCN(c2ccc(O)cc2)CC1 | 7.9
60 | COC(=O)c1ccc(NS(=O)(=O)c2cc(C)ccc2OC)cc1 | 7.08
61 | O=C(CNc1ccc(Br)cc1)c1ccc(O)cc1 | 18.9
62 | O=C(C[n+]1cc(-c2ccc(F)cc2)n2c1CCC2)Nc1nc(-c2ccccc2)cs1.[Cl-] | 16.1
63 | O=C(O)c1ccccc1C(=O)N1N=C2/C(=C/c3cccc([N+](=O)[O-])c3)CCCC2C1c1cccc([N+](=O)[O-])c1 (stereo not drawn) | 7.5
64 | O=C(NC1CCCCCC1)C(=O)NC1CC1 | 13
65 | CCOCCNC(=O)c1ccc2c3c(cccc13)CC2 | 10.9
66 | Cc1cc2ncn(-c3ncnc4sc5c(c34)CCC(C)C5)c2cc1C (stereo not drawn) | -0.88
67 | CC(NC(=O)c1ccc2c(c1)S(=O)(=O)N=C1CCCCCN12)c1ccc(S(N)(=O)=O)cc1 (stereo not drawn) | -0.551
68 | Cc1ccc(NC(=O)C2CCN(S(=O)(=O)c3cccs3)CC2)c(O)c1 | 2.97
69 | CN(C)c1oc(-c2ccccc2Cl)nc1S(=O)(=O)c1ccccc1 | 5.01

Row | SMILES | hERG current change (%, negative = inhibition) at 1uM [%]
70 | COc1cccc(C(O)c2nc3ccccc3n2C)c1 (stereo not drawn) | 11.8
71 | NC(=O)c1cc([N+](=O)[O-])cc2c1C=Cc1ccccc1O2 | 4.96
72 | NNC(=O)C(Cc1ccccc1)NC(=O)OCc1ccccc1 (stereo not drawn) | 31.9
73 | CCOC(=O)C1CCN(S(=O)(=O)c2ccc(OC)c(C(=O)N3CCCCCC3)c2)CC1 | 10
74 | COc1cc(CN2CCCC(C(=O)Nc3ccccc3Oc3cccnc3)C2)ccc1F (stereo not drawn) | 1.16
75 | C=CCC1c2cccc(C(=O)O)c2C(=O)N1c1ccc(F)cc1 (stereo not drawn) | 3.84
76 | Cc1oc2ccc(OC(=O)N3CCOCC3)cc2c1C(=O)OC(C)C | 13.6
77 | O=S(=O)(NNc1ccc(Cl)nn1)c1ccc(F)cc1 | 3.03
78 | CCC1=Nc2cc(C(=O)NCCN3CCCC3)ccc2Sc2ccccc21 | 9.43
79 | Nc1ccc(C2(c3ccc(N)cc3)c3ccccc3-c3ccccc32)cc1 | 5.49
80 | C=CCn1c(SCC(=O)Nc2cccc(S(=O)(=O)N(C)c3ccccc3)c2)nnc1C1CC1 | -3.67
81 | Cc1ccc(NC2=NC(c3ccccc3)n3c(nc(C)cc3=O)N2)cc1 (stereo not drawn) | 8.23
82 | COc1ccc(Cl)cc1NC(=O)CN(C)C(=O)CCc1nc2ccccc2c(=O)[nH]1 | 1.33
83 | CCOC(=O)c1c(-c2ccc(C)s2)csc1NC(=O)c1cccs1 | 5.23
84 | O=C(Nc1ccc2ncccc2c1)c1cc(Cl)ccc1Cl | 12.6
85 | Fc1ccc2c(c1)C1C=CCC1C(c1cc3c(cc1Br)OCO3)N2 (stereo not drawn) | 3.45
86 | CSc1ccccc1NC(=O)c1cccc(S(=O)(=O)N2CCN(C)CC2)c1 | 18.1
87 | O=C(NCc1nc2ccccc2[nH]1)c1ccc(S(=O)(=O)N2CCCC2)cc1 | 8.19
88 | O=C(COC(=O)c1cccc(S(=O)(=O)N2CCCC2)c1)NCc1ccccc1 | 15.3
89 | CCOc1cc(C)c(S(=O)(=O)NC2CCCCC2)cc1C | 9.26
90 | O=C(O)c1ccc(N/N=C/c2ccc(-c3cc(Cl)ccc3Cl)o2)cc1 | 8.83
